The results in this text go back to PubChem BioAssay AID488969 (Vanderbilt High Throughput Screening Facility, 2010).

Each structure is given as a SMILES string. Over roughly 110,000 compounds, “z-score” has its median near -0.1; the highest 2% begin near 2. Some of the results follow. Calls of active or inactive are those of the source.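 How the source made its calls: active means z-score in the third read window above 3 or below -3; inactive means the rest.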

This assay concerns the target Metabotropic glutamate receptor 8 (Rattus norvegicus) (UniProt P70579). The experiment in a line: mGluR8 Gi/Go-coupled signaling modulation – cell-based, rat, thallium flux, HTS, primary screen (AID 488969). Particulars: HEK293 rat mGluR8, GIRK (G protein-gated inwardly rectifying potassium channel) thallium flux, FluoZin2; at 10 µM; stronger effect = higher value; submaximal glutamate (EC20) added with thallium.
Chain of UniProt P70579 (P70579 whole entry, looked up): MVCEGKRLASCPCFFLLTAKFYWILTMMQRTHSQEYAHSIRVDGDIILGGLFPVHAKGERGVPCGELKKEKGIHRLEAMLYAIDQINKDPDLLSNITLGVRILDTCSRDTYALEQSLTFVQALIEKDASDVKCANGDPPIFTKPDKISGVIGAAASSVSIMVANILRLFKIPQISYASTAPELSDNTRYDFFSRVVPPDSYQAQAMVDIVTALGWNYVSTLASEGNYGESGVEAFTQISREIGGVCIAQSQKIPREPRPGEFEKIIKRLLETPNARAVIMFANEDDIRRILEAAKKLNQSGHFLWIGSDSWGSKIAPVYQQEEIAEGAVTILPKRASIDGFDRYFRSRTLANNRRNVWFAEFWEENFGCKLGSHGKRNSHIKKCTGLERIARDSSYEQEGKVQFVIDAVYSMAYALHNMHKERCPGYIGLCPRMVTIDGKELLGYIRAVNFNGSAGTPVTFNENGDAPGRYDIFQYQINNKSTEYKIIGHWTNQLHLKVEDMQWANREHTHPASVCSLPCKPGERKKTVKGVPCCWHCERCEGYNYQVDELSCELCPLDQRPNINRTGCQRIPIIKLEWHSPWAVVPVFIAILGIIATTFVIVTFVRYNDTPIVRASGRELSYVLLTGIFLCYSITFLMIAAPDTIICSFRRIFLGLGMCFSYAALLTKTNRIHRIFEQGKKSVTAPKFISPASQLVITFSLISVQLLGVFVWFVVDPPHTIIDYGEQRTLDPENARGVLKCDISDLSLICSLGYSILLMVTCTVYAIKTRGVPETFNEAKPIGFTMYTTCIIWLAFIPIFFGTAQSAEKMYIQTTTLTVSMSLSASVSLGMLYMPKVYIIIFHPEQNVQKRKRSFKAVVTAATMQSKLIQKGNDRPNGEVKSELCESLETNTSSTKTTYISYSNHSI
`CCCCC(=O)NC1=NC(=O)C(C)(C)S1`: the z-score amounted to 0.316. For the compound `O=C(NC(Cc1c[nH]c2ccccc12)C(=O)OCC(=O)c1cccc2ccccc12)c1cccs1` (stereo not given), the z-score was -0.308. Turning to `CCn1nnnc1SCC(=O)Nc1nc(C)c(C)s1`, the z-score came out at 0.0421. As to `Cc1nc(-c2coc3cc(OCC(=O)O)ccc3c2=O)cs1`, the z-score was -0.0655. As to `O=C(CSc1nncs1)Nc1ccc2c(c1)OCCO2`, the z-score is -0.308. As for `Oc1ccccc1N=Nc1nc(-c2ccccc2)c(-c2ccccc2)[nH]1`, the z-score came out at 0.115. On to `COc1cc(/C=C/C(=O)OCC(=O)Nc2ccc3c(c2)OCCO3)ccc1O`, for which the z-score was -0.712.

`COc1ccc(C(c2c[nH]c3ccccc23)c2c[nH]c3ccccc23)cc1O` gave a z-score of 0.143. For `CC(=O)Nc1ccccc1C(=O)C(=O)Nc1ccc(F)cc1` the value was -0.174; for `CC(=O)NC1C(=O)N(CC(C)C)c2ccccc21` (stereo not given), -0.216. `Cc1ccc(C(=O)COC(=O)CNC(=O)Cc2ccccc2)cc1[N+](=O)[O-]`: the z-score is -0.0605. `COc1ccc(-n2nnnc2/C=C\Nc2ccccc2C(=O)c2ccccc2)cc1` registered a z-score of -0.171. For `CCC(=O)Nc1ccc(-c2nc(-c3ccccc3)n(CC(=O)N3CCCCC3)n2)cc1` the value was 0.92. Compound `Cn1c(NC(=O)C[n+]2cc(-c3ccc(Cl)c(Cl)c3)n3c2CCC3)cc(=O)n(C)c1=O` yielded a z-score of -0.217. `COc1cc(OC)c2c(c1)C(=O)c1cc(OC)cc(OC)c1C2=O`: the z-score is -0.0118.

In the case of `CCOC(=O)CC(=O)CSc1nc2cc(C)ccc2cc1C`, the z-score was 0.9. The same measure for `CCOC(=O)C(C)Oc1ccc(C2NC(=O)NC(C)=C2C(=O)Nc2ccccc2C)cc1` (stereo not given): -0.241; for `CCCn1c(SCC(=O)c2c(C)[nH]c(C)c2C(=O)OCC)nc2ccccc21`: -0.103. In turn, `O=C(NCc1ccccc1)C12CC3CC(CC(C3)C1)C2` registered a z-score of -0.456. The same measure for `COc1ccc(CNc2nc3ccccc3n2CCN2CCOCC2)cc1`: 0.553; for `Cc1ccc(C)c(S(=O)(=O)Nc2ccc(S(=O)(=O)Nc3onc(C)c3C)cc2)c1`: 0.0505. `CC1Cc2ccccc2N1C(=O)c1cc2sccc2n1Cc1ccccc1` (stereo not given) displayed a z-score of -0.0901. For `Cc1cccc(CN2CCc3c(OCC(=O)NCc4ccco4)cccc3C2=O)c1` the value was -0.878; for `NC(N)=Nc1nc(C2COc3ccccc3O2)cs1` (stereo not given), -0.488; for `COc1ccc(Cc2nnc(SCC(=O)N3CCN(c4ccccc4)CC3)o2)cc1`, 0.468.

On to `CCc1cc2c3c(c(=O)oc2cc1O)CCCC3`, for which the z-score is -1.33. In the case of `O=C(NC1(C(F)(F)F)NC(=O)N(C2CCCC2)C1=O)C1CC1` (stereo not given), the z-score was -0.129. For `COc1ccc(-c2ccc(=O)n(Cc3cc(=O)n4ccccc4n3)n2)cc1` the value was 0.329; for `Cn1c(=O)c2c(ncn2CCN(CCO)Cc2ccccc2)n(C)c1=O`, 0.0401. The compound `Cc1cccc(CCNS(=O)(=O)c2ccc(S(=O)(=O)N3CCCCC3)cc2)c1` displayed a z-score of 0.32. The same measure for `N/C(=N\OC(=O)CCCc1ccccc1)c1cccnc1`: -0.188; for `Cn1ncc(C#N)c1/N=C/N1CCCCC1`: -0.153. Compound `Cc1ccc(-c2csc3ncnc(NS(=O)(=O)c4ccc(Cl)cc4)c23)cc1` gave a z-score of -0.524.

With `CCOC(=O)C1=C(NC#N)OC(C)=C(C)C1c1ccc(O)cc1` (stereo not given), the z-score is 1.53. For `O=S(=O)(c1ccccc1C(F)(F)F)N1CCN(S(=O)(=O)c2ccccc2C(F)(F)F)CC1` the value was 0.189; for `COc1ccccc1NS(=O)(=O)c1ccc(NC(=O)CCNC(=O)c2ccco2)cc1`, -1.14. Take `Cc1ccc(C2=CC(C)(c3ccc(C)cc3)Nc3nc(C(F)(F)F)nn32)cc1` (stereo not given): the z-score amounted to 0.165. The same measure for `Cc1cccc(CSc2nnc(C)c(=O)n2N)c1`: -0.107; for `O=S(=O)(NCC(c1ccco1)N1CCN(c2ccc(F)cc2)CC1)c1ccc(F)cc1` (stereo not given): -0.142; for `O=C(C1c2ccccc2Oc2ccccc21)N1CCN(c2ccc(Cl)cc2)CC1`: 0.867. The same measure for `Cn1c(=N)n(CC(=O)c2ccc(Br)s2)c2ccccc21`: -0.0582; for `O=C(C(Cl)Cl)N1CCN(Cc2ccccc2)CC1`: 0.106; for `Cc1cccn2cc(CNS(=O)(=O)c3cccc(F)c3)nc12`: -0.127. The same measure for `O=C(CSc1ccc(Cl)cc1)Nc1ccc(-c2nc3ccccc3[nH]2)cc1`: 0.471; for `COC(=O)c1scc(C)c1NC(=O)Cc1ccccc1`: -0.147. For the compound `CCNC(=O)n1nccc1C(C)Oc1ccc(Cl)cc1` (stereo not given), the z-score is -0.325. On to `CC(=O)c1ccc(NC(=O)Nc2ccccc2)cc1`, for which the z-score was determined as 0.41. On to `Cc1ccc(NC(=S)N/N=C2/CCCc3c(C)cc(C)cc32)cc1`, for which the z-score worked out at 0.985. For `O=C(NCc1cccnc1)c1ccc(=O)oc1` the value was 0.00474; for `CC(=O)Nc1cccc(C(=O)OCc2ccc(C(=O)Oc3ccc(Cl)cc3)cc2)c1`, 0.195; for `COc1ccc(CCNC(=O)CN2CCCc3ccccc32)cc1OC`, -0.0618. The compound `O=C(CCCC(=O)OCC(=O)c1cccs1)Nc1ccc(Oc2ccccc2)cc1` came in with a z-score of 0.148. On to `N#CC1=C2SCN(Cc3ccco3)CN2C(=O)CC1c1ccccc1F` (stereo not given), for which the z-score is -0.654. The same measure for `CC(C)c1ccc(OCC(O)Cn2cnc3ccccc32)cc1` (stereo not given): -0.507; for `COC(=O)c1cc2c(s1)-c1ccccc1OC2`: -0.0119. For `O=C(CNc1cccc2ccccc12)N/N=C/c1ccc([N+](=O)[O-])cc1` the value was 1.86; for `CON(C)c1nc(OCCNC(=O)COc2ccc(Cl)cc2C)nc(N(C)C)n1`, 0.98; for `CCc1nnc(NC(=O)CSc2nnc(Cc3cccn3C)n2CCOC)s1`, -0.0814. On to `O=C1c2cccc(OCC(=O)N3N=C(c4cccs4)CC3c3ccc(F)cc3)c2CCN1Cc1ccccc1` (stereo not given), for which the z-score was -0.0715.

In the case of `COC(=O)CNC(=O)CNC(=O)Nc1ccccc1Cl`, the z-score is -0.0464. Consider `CC1CCCN(C(C(=O)NC2CCCCC2)c2cc3c(cc2[N+](=O)[O-])OCO3)C1` (stereo not given), for which the z-score is -0.149. Regarding `CN(CC(O)CON=C1c2ccccc2-c2ccccc21)S(=O)(=O)c1ccc(Br)cc1` (stereo not given), the z-score was -0.0439. With `CC1CCCN(C(=O)C2CCN(CC(C)c3ccccc3)CC2)C1` (stereo not given), the z-score is -0.276.

As for `O=S(=O)(c1ccccc1)c1nc(-c2ccco2)oc1NCc1ccco1`, the z-score is -0.338. The compound `O=C1c2ccccc2C(=O)N1CC1c2ccccc2CCN1C(=O)N1CCOCC1` (stereo not given) displayed a z-score of 0.611. The same measure for `CCN(c1ccc(OC)cc1)c1ncnc2nc[nH]c12`: -0.267. For `Cc1ccc(NC(=O)CN(C)C(=O)Cn2cc(C(F)(F)F)cc(Cl)c2=O)cc1` the value was -0.0337; for `Nn1cnnc1N/N=C/c1cc([N+](=O)[O-])c(Cl)cc1Cl`, -0.3; for `Cc1ccc(C(=O)Nn2c(N)c(S(=O)(=O)c3ccc(C)cc3)c3nc4ccccc4nc32)cc1`, 0.0666. In turn, `CCOc1ccccc1Nc1nc(-c2sc(NC(=O)c3ccc([N+](=O)[O-])cc3)nc2C)cs1` gave a z-score of 0.209.

`Cc1ccc(OCc2n[nH]c(=S)n2C2CCCCC2)cc1` registered a z-score of -1.04. The same measure for `O=C(Nc1nnc(C(F)(F)F)s1)C1COc2ccccc2O1` (stereo not given): -0.109.

Consider `Cc1csc(NC(=O)C2CCCN(S(=O)(=O)c3cccnc3)C2)n1` (stereo not given), for which the z-score came out at 0.169. The compound `Cn1c(SCC(=O)c2ccc3c(c2)Cc2ccccc2-3)nnc1-c1cccc(N)c1` returned a z-score of -0.227. For `Cc1ccc(Cn2c(SCC(=O)N3CC(=O)Nc4ccccc43)nc3ccccc3c2=O)cc1` the value was 1.31; for `Cc1ccc(OCCCCNC(C)(C)C)c([N+](=O)[O-])c1`, -0.262; for `O=C(Cn1ncc2ccccc21)N1CCN(c2cccc(C(F)(F)F)c2)CC1`, -0.0256. Compound `Clc1ccccc1CSc1cc2c(nn1)-c1ccccc1CC2` yielded a z-score of -0.0174. For `COc1ccc(/C(C)=N/NC(=O)c2ccc(N(C)C)cc2)cc1` the value was -0.494. For `CCc1ccc(NC(=O)c2cc(C(C)C)on2)cc1` the value was 0.938; for `COc1ccc(-n2c(-c3ccc(Br)cc3)nc(=S)c3c2CCCC3)cc1`, -0.475; for `CCOc1nnc(C)c2c(C)n(-c3cccc(OC)c3)nc12`, 0.0308. With `COc1cccc(N=c2oc3c(C)ncc(CO)c3cc2C(=O)Nc2ccccc2OC)c1`, the z-score turned out to be 0.0916. The same measure for `CCCNC(=O)NC(C(=O)OC)C12CC3CC(CC(C3)C1)C2` (stereo not given): 0.234. On to `N#Cc1c(-c2ccco2)nc(SCC(=O)Nc2ccc(S(N)(=O)=O)cc2)[nH]c1=O`, for which the z-score was -0.14. The same measure for `CCc1c(C)sc(NC(=O)CC#N)c1C#N`: 0.000574; for `COc1ccc(-c2nc(NC(=O)CSc3nnc(C)s3)ns2)cc1`: 1.21.

In turn, `COc1ccc(NC(=O)C(NC(=O)c2ccc(=O)[nH]c2)c2ccccc2)cc1` (stereo not given) returned a z-score of -0.0633. For `Cc1ccc(COc2ccc(/C=N/O)cc2)cc1` the value was -0.961. The same measure for `CCOC(=O)C1=C(O)CSC1=Nc1cccc2ccccc12`: -1.05. The compound `O=C(Cc1cccs1)NNC(=S)NC(=O)c1ccccc1` had a z-score of 0.646. With `COC(=O)NNC(=O)COc1cc(C)ccc1C`, the z-score stood at 0.0705. The same measure for `COc1ccc(-n2nnnc2SC(C)C(N)=O)cc1` (stereo not given): 0.0936; for `O=C(CN1N=C(C(F)(F)F)CC1(O)c1ccc([N+](=O)[O-])cc1)c1ccccc1` (stereo not given): 1.24; for `O=[N+]([O-])c1ccc(-n2nnnc2-c2ccccc2)c([N+](=O)[O-])c1`: -0.372. `CCCc1nnc(NC(=O)CCC(=O)N2CCCCCC2)s1`: the z-score is -1.15.

`CCN(/N=C/c1ccccc1)c1cc(=O)n(C)c(=O)[nH]1` showed a z-score of -0.297. The same measure for `CCN(CC)S(=O)(=O)c1cc(C(=O)Nc2cc(Cl)ccc2N2CCN(C)CC2)ccc1Cl`: 0.364; for `Cc1ccc(NC(=O)CN2C(=O)S/C(=C/c3ccc(-c4cc(C(=O)O)ccc4C)o3)C2=O)cc1C`: -1.41; for `CC1CCN(c2ccccc2NC(=S)NC(=O)c2ccco2)CC1`: active: 3.89. `CCOC(=O)c1sc(NC(=O)Nc2ccccc2Cl)cc1C` came in with a z-score of -0.499.

On to `CCSc1nnc(NC(=O)c2ccco2)s1`, for which the z-score is 0.0787.

Compound `O=C(COC(=O)CC1CC2CCC1C2)NC(=O)NCc1ccco1` (stereo not given) had a z-score of -0.781.

Compound `CS(=O)(=O)Nc1ccc(N2CCCCC2)c(Cl)c1` yielded a z-score of 0.507.

For the compound `CCOC(=O)/C=c1\s/c(=C\c2ccccc2OC)c(=O)n1CC(=O)N1CCOCC1`, the z-score is 0.423.

`C=CCc1ccc(OCC(O)CO)c(OC)c1` (stereo not given) registered a z-score of -0.508. The compound `CC1CN(c2oc(-c3ccccc3Cl)nc2C#N)CC(C)O1` (stereo not given) came in with a z-score of -0.0825. For `CC1=C(C(=O)Nc2ccccc2)C2(CCCCC2)C(C(N)=O)C(=S)N1` (stereo not given) the value was -0.285. The same measure for `CN(C)c1ccnc(Oc2ccccc2)c1C#N`: -0.184; for `CCn1cc(C(=O)NCC2CCCO2)c(=O)c2cc(S(=O)(=O)N3CCCCCC3)ccc21` (stereo not given): -0.167.
